According to US20100184636:

Molecular target: endogenous raptor (UniProt Q8N122)
Sequence of UniProt Q8N122 (Q8N122 whole entry, looked up): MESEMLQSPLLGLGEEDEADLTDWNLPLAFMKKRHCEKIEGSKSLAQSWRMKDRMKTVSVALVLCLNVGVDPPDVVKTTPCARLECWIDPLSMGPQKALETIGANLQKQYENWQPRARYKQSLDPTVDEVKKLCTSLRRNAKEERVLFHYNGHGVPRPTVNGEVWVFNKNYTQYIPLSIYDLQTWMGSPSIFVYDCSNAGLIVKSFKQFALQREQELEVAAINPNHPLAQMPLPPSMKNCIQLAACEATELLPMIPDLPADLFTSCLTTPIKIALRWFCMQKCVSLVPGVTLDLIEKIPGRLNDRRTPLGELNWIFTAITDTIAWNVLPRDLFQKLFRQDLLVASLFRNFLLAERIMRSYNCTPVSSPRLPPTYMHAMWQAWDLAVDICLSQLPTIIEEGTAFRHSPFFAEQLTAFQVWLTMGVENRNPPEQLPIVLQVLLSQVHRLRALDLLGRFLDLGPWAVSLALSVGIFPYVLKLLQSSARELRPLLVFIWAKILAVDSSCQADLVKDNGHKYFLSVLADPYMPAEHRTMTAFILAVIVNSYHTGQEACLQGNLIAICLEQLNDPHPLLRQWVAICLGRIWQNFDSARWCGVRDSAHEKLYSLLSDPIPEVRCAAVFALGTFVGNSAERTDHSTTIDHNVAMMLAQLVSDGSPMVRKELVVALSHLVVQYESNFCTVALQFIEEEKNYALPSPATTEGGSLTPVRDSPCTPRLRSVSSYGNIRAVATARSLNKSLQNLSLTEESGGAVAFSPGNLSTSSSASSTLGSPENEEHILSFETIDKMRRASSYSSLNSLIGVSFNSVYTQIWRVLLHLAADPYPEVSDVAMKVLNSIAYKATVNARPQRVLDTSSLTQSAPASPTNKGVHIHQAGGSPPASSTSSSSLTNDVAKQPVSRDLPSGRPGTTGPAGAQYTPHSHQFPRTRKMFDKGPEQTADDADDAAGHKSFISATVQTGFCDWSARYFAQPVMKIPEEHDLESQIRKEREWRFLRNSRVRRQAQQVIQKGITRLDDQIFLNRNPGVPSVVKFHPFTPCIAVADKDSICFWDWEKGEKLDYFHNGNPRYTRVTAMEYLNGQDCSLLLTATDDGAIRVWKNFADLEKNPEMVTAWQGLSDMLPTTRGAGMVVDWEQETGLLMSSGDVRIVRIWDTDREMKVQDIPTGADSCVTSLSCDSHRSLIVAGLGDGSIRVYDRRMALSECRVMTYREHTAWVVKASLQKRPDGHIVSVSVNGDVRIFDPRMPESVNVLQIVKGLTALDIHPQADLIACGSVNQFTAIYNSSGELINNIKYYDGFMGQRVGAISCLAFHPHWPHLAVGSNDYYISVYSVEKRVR

Substance | S6K1 phosphorylation | exogenous PA-dependent phosphorylation of S6K1 (add-back) | mTOR kinase activity (in vitro kinase assay, phospho-4EBP1)
PLD2^F265A (no sequence given) | PLD2^F265A and PLD2^E266R did not trigger S6K1 phosphorylation versus PLD2^wt | the exogenous PA-dependent phosphorylation of S6K1 was rescued by PLD2^wt and PLD2^K758R, but not by PLD2^F265A and PLD2^E266R | PLD2^F265A and PLD2^E266R could not trigger mTOR kinase activity
PLD2^E266R (no sequence given) | PLD2^F265A and PLD2^E266R did not trigger S6K1 phosphorylation versus PLD2^wt | the exogenous PA-dependent phosphorylation of S6K1 was rescued by PLD2^wt and PLD2^K758R, but not by PLD2^F265A and PLD2^E266R | PLD2^F265A and PLD2^E266R could not trigger mTOR kinase activity
